According to PMC9597577, “Mutant Ras and inflammation-driven skin tumorigenesis is suppressed via a JNK-iASPP-AP1 axis” (Cell Reports, 2022):
Results are given in words; binding and its absence hold for the method and conditions named. In cells and extracts the contact can be indirect. Some binding calls cover weakened binding; strength is not graded here.

Assays:
[1] = target: T1, JunD (endogenous, HaCaT) (human (endogenous in HaCaT)) (UniProt P17535); assay: co-IP; lysates of UV-irradiated HaCaT cells (also with DMSO or p38 inhibitor); anti-iASPP LX49.3 or LX128.5, or anti-JunD, with protein G agarose overnight at 4°C; endogenous proteins
T1 sequence: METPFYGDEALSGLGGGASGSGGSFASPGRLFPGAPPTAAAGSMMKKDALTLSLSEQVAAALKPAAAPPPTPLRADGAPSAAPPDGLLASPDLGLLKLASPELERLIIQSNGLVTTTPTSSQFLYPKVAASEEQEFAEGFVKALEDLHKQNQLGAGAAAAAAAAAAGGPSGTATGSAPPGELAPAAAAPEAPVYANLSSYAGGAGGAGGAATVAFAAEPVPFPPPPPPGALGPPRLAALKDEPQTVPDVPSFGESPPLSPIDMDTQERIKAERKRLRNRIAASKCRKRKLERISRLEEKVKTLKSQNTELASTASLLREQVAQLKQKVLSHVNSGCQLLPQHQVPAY

[2] = target: T1, JunD (endogenous, HaCaT) (human (endogenous in HaCaT)); assay: co-IP; unfractionated lysates of untreated HaCaT cells (also UV-irradiated cells pre-treated with JNK inhibitor); anti-iASPP LX49.3 or LX128.5, or anti-JunD, with protein G agarose overnight at 4°C; endogenous proteins

B1: iASPP (endogenous, HaCaT) (protein, UniProt Q8WUF5 1-828)
chain: MDSEAFQSARDFLDMNFQSLAMKHMDLKQMELDTAAAKVDELTKQLESLWSDSPAPPGPQAGPPSRPPRYSSSSIPEPFGSRGSPRKAATDGADTPFGRSESAPTLHPYSPLSPKGRPSSPRTPLYLQPDAYGSLDRATSPRPRAFDGAGSSLGRAPSPRPGPGPLRQQGPPTPFDFLGRAGSPRGSPLAEGPQAFFPERGPSPRPPATAYDAPASAFGSSLLGSGGSAFAPPLRAQDDLTLRRRPPKAWNESDLDVAYEKKPSQTASYERLDVFARPASPSLQLLPWRESSLDGLGGTGKDNLTSATLPRNYKVSPLASDRRSDAGSYRRSLGSAGPSGTLPRSWQPVSRIPMPPSSPQPRGAPRQRPIPLSMIFKLQNAFWEHGASRAMLPGSPLFTRAPPPKLQPQPQPQPQPQSQPQPQLPPQPQTQPQTPTPAPQHPQQTWPPVNEGPPKPPTELEPEPEIEGLLTPVLEAGDVDEGPVARPLSPTRLQPALPPEAQSVPELEEVARVLAEIPRPLKRRGSMEQAPAVALPPTHKKQYQQIISRLFHRHGGPGPGGPEPELSPITEGSEARAGPPAPAPPAPIPPPAPSQSSPPEQPQSMEMRSVLRKAGSPRKARRARLNPLVLLLDAALTGELEVVQQAVKEMNDPSQPNEEGITALHNAICGANYSIVDFLITAGANVNSPDSHGWTPLHCAASCNDTVICMALVQHGAAIFATTLSDGATAFEKCDPYREGYADCATYLADVEQSMGLMNSGAVYALWDYSAEFGDELSFREGESVTVLRRDGPEETDWWWAALHGQEGYVPRNYFGLFPRVKPQRSKV
For B1, the binding [1] was “no binding (condition: UV-treated HaCaT cells)” and the binding [2] was “binds”.
